Data published in PubChem BioAssay AID624202 (National Center for Advancing Translational Sciences (NCATS), 2012).
Hit rate of the full screen: of about 380,000 compounds, about 4,000 (1.1%) were called active. The inconclusive results got no clear call from the source; some entries with a clear call stand among them for comparison. Calls follow the shape of the dose curve; as a rule, active = well fitted activation curve with a large enough effect; inconclusive = small, poorly fitted or top-dose-only effect; inactive = no such curve, though single readings can be large or run the other way. Potencies beside an inconclusive call are fits to weak or partial responses and may not hold up.
Potency is read from the fitted curve at half-maximal effect; tags tell the direction and shape of the fitted curve.

Assay: qHTS Assay to Identify Small Molecule Activators of BRCA1 Expression; also: nearly all actives have a fitted effect of over 80% in size
Conditions: MCF7-BRCA1-FFLuc reporter, luminescence, 48 h; activation: at 46.1 µM (top of the series), scaled: vehicle 0%, 10 µM genistein 100% unless noted
Summary of the method: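 Luminescence from a BRCA1-driven firefly luciferase in MCF7 cells was the read-out, taken 15 min after substrate addition following 48 h compound exposure at 37 °C. Data were normalized to a 10 microM genistein control and DMSO vehicle.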
In the case of `O=[N+]([O-])c1cccnc1NCCc1c[nH]c2ccccc12`, the Potency is reported as inconclusive: 2.82 µM [activator, full curve, poor fit].
In the case of `C=CCSc1n[nH]c(-c2ccc(OCCC)cc2)n1`, the Potency is reported as active: 3.55 µM.
With `CCC(C)c1ccccc1OCC(=O)Nc1ccc(S(=O)(=O)Nc2cc(C)on2)cc1` (configuration not stated) the “activation” value was inactive: 3.29%.
With `Cc1nn(-c2nc3ccccc3s2)c(C)c1Oc1ccccc1O` the Potency was inconclusive: 2 µM [activator, partial curve, poor fit].
For `O=c1c2sccc2nc(SCc2cc(=O)n3cc(Br)ccc3n2)n1Cc1ccccn1`, the Potency was active: 6.31 µM.
In the case of `O=C(Nc1nnc([C@H]2C[C@H](O)[C@@H](CO)O2)s1)Nc1ccc(F)cc1F`, the Potency is reported as inconclusive: 7.08 µM [activator, partial curve, poor fit].
For `CN(Cc1ccccc1)C(=O)CSc1nc2ccccc2[nH]1`, the Potency was inconclusive: 11.2 µM [activator, partial curve, poor fit].
With `O=C(CCC1COc2ccccc2O1)Nc1ccc(Cl)cn1` (configuration not stated) the “activation” value was inactive: 14.1%.
For `CCN(CC)S(=O)(=O)c1ccc(Cl)c(NC(=O)c2ccccc2C)c1`, the “activation” value was inactive: -9.79%.
With `COc1cc(OC)cc(C(=O)Nc2nc3ccc(S(C)(=O)=O)cc3s2)c1` the Potency was active: 5.62 µM.
For `CCCCNC(=O)Nc1nc2ccc(CC)cc2s1`, the Potency was inconclusive: 2.82 µM [activator, full curve, poor fit].
For `O=C(/C(=C(\O)c1ccccc1)c1nc2ccccc2[nH]1)c1ccccc1`, the “activation” value was inactive: -43.9%.
With `Cn1cccc1/C=N/n1c(-c2ccc(Cl)cc2)n[nH]c1=S` the “activation” value was inactive: -11.5%.
With `O=C(COC(=O)COc1cccc(C(F)(F)F)c1)NC1CCCC1` the “activation” value was inactive: -1.67%.
For `CCOC(=O)Nc1sc2c(c1C#N)CCC(C)C2` (configuration not stated), the Potency was inconclusive: 2.24 µM [activator, full curve, poor fit].
In the case of `O=C(/C=C/Nc1ccccc1)c1ccccc1`, the Potency is reported as inconclusive: 1.58 µM [activator, partial curve, poor fit].
In the case of `c1cn2c(NC3CCCCC3)c(-c3ccc(SC4CCCCC4)cc3)nc2cn1`, the “activation” value is reported as inactive: -2.69%.
In the case of `COc1ccc(/C=N/Nc2nncc3ccccc23)c(OC)c1`, the Potency is reported as inconclusive: 10 µM [activator, partial curve, poor fit].
For `CCCCN(C(=O)Cc1cccs1)c1nnc(-c2cccnc2)s1`, the Potency was active: 3.16 µM.
With `O=C(CCSc1ccccc1)N1CCN(c2ccccc2F)CC1` the Potency was inconclusive: 8.91 µM [activator, partial curve, poor fit].
With `CCOc1ccc(-c2cc(C(=O)N3CCN(c4ccccn4)CC3)c3ccccc3n2)cc1` the Potency was “inactive”.
In the case of `CCOC(=O)NC1CCc2cc(OC)c(OC)c(OC)c2-c2ccc(OC)c(=O)cc21` (configuration not stated), the activation is reported as inconclusive: -74.1% [activator].
For `CNC(=S)N/N=C/c1ccc2c(c1)OCCO2`, the Potency was inconclusive: 15.8 µM [activator, single point].
In the case of `COc1ccc(/C=N/Nc2cc(C)nc3ccc(OC)cc23)c(OC)c1`, the “activation” value is reported as inactive: -91.4%.
With `COc1cccc(-c2cnc(C(O)c3ccc(F)cc3)[nH]2)c1` (configuration not stated) the Potency was active: 12.6 µM.
For `O=[N+]([O-])c1ncccc1OCc1ccc(Cl)c(Cl)c1`, the Potency was active: 7.08 µM.
With `CC1=C(C(N)=O)C(c2ccc(Cl)c(Cl)c2)n2ncnc2N1` (configuration not stated) the “activation” value was inactive: -4.6%.
In the case of `CN(C)CCN(C(=O)C1CCCCC1)c1nc2cc3c(cc2s1)OCCO3`, the Potency is reported as active: 11.2 µM.
For `c1ccc(CCSc2nccn2-c2ccccc2)cc1`, the Potency was inconclusive: 1.58 µM [activator, full curve, poor fit].
For `COc1cc2c(=O)c(S(=O)(=O)c3ccc(C(C)C)cc3)cn(Cc3ccccc3C)c2cc1OC`, the “activation” value was inactive: -43.2%.
In the case of `Cc1ccc(NC(=O)NCc2ccc3c(c2)OCO3)cc1C`, the Potency is reported as inconclusive: 14.1 µM [activator, single point].
For `COc1ccc(/C=C/c2nc(-c3ccccc3O)n[nH]2)cc1`, the Potency was inconclusive: 2.51 µM [activator, partial curve, poor fit].
For `COC(=O)/C=C1\SC(=Nc2ccccc2)NC1=O`, the “activation” value was inactive: -19.2%.
With `COc1cccc(C(=O)Nc2ccc(N(C)C)cc2)c1OC` the Potency was inconclusive: 1.58 µM [activator, partial curve, poor fit].
In the case of `Cc1cc(NC(=O)c2ccc3nccnc3c2)ccc1Br`, the Potency is reported as inconclusive: 0.631 µM [activator, full curve, poor fit].
In the case of `CCN(CC)C(=O)c1sc2nc(-c3ccccc3)ccc2c1N`, the Potency is reported as active: 2.24 µM.
In the case of `O=C(Nc1nc2c(s1)CCCC2)c1ccc(Br)o1`, the Potency is reported as inconclusive: 0.501 µM [activator, full curve, poor fit].
For `COc1cccc(NC(=O)c2ccc3c(c2)N(C)CCS3)c1`, the Potency was inconclusive: 35.5 µM [activator, single point].
In the case of `Cc1ccc(NC(=O)Nc2ccc(Cl)c(Cl)c2)nc1`, the Potency is reported as inconclusive: 35.5 µM [activator, single point].
For `Cc1cc(C)n(CC(O)COc2ccc3ccccc3c2)n1` (configuration not stated), the Potency was inconclusive: 14.1 µM [activator, partial curve, poor fit].
For `Cc1ccc(Cn2nnc3c(=O)[nH]c(C4CCCN(C(=O)c5ccco5)C4)nc32)cc1` (configuration not stated), the “activation” value was inactive: -15.8%.
In the case of `c1coc(-c2nnc3sc(Cc4cccs4)nn23)c1`, the “activation” value is reported as inactive: 1.47%.
With `O=C(Nc1ccccc1C(F)(F)F)c1cc(-c2ccc(O)cc2)on1` the Potency was active: 11.2 µM.
For `C/C(=N\NC(=O)c1cc(C)[nH]n1)c1cccs1`, the Potency was inconclusive: 2 µM [activator, partial curve, poor fit].
For `Cc1c(C(=O)NCc2ccoc2)oc2ccc3c(c12)C(=O)CC(C)(C)O3`, the Potency was inconclusive: 3.16 µM [activator, partial curve, poor fit].
In the case of `OCCN1CCN(c2nc(NCc3ccco3)c3ccccc3n2)CC1`, the “activation” value is reported as inactive: -4.05%.
In the case of `Cc1cccc(Nc2nc3ccccc3s2)c1C`, the Potency is reported as inconclusive: 1 µM [activator, full curve, poor fit].
For `COc1cccc(N=Nc2c(C)[nH]n(-c3ccccc3)c2=O)c1`, the “activation” value was inactive: -1.08%.
In the case of `Cc1ccc2c(c1)C1CN(C)CCC1N2C(=S)NC(=O)c1ccc(Cl)cc1Cl` (configuration not stated), the “activation” value is reported as inactive: -25.2%.
With `CCS(=O)(=O)N1CCC(c2nc(-c3ccc(C)cc3)no2)CC1` the “activation” value was inactive: 29.9%.
With `COc1ccccc1NC(=O)Cn1cnc2sc(C(=O)Nc3ccc(OC)c(OC)c3)c(C)c2c1=O` the “activation” value was inactive: -31.1%.
In the case of `O=C(CN1C(=O)CCC1=O)Nc1nc(-c2nc3ccccc3s2)cs1`, the Potency is reported as active: 5.01 µM.
For `O=[N+]([O-])c1cccnc1NCCNc1ncc(C(F)(F)F)cc1Cl`, the Potency was active: 2.51 µM.
In the case of `OCc1cn(-c2ccccc2)nc1-c1cc2ccccc2o1`, the Potency is reported as active: 2.51 µM.
In the case of `O=[N+]([O-])c1ccccc1N/N=C/c1ccc2c(c1)OCO2`, the Potency is reported as inconclusive: 0.562 µM [activator, full curve, poor fit].
With `O=C(CN1C(=O)NC2(CCCCCC2)C1=O)c1ccc(Cl)cc1` the Potency was inconclusive: 17.8 µM [activator, single point].
For `O=C(NCCn1cc(SCc2ccc(C(F)(F)F)cc2)c2ccccc21)c1ccccc1F`, the “activation” value was inactive: -3.92%.
For `O=c1c2ccccc2ncn1-c1ccc2c(c1)OCCO2`, the Potency was inconclusive: 12.6 µM [activator, partial curve, poor fit].
In the case of `CC(=O)c1cccc(NC(=O)c2ccc3c(c2)CCCC3)c1`, the Potency is reported as active: 3.55 µM.
For `CN1CCN(C(=O)c2cc(-c3cccc(Cl)c3)on2)CC1`, the Potency was inconclusive: 11.2 µM [activator, partial curve, poor fit].
In the case of `CC1CN(C(=O)CSc2nc(-c3ccccc3)cs2)CC(C)O1` (configuration not stated), the Potency is reported as inconclusive: 10 µM [activator, single point].
With `CCCCNC(=O)Cn1c(SCc2ccccc2C)nc2ccncc21` the “activation” value was inactive: 10.9%.
With `Cc1cccc(C)c1OCC(=O)Nc1cccc(NC(=O)c2ccco2)c1` the “activation” value was inactive: -22.3%.
With `COc1ccc(C(=O)N(Cc2ccco2)Cc2cccs2)c(O)c1` the Potency was “inactive”.
In the case of `CCCN(CC1CC1)C(=S)Nc1ccc(C(C)=O)cc1`, the Potency is reported as inconclusive: 35.5 µM [activator, single point].
For `N/C(=N\OC(=O)c1ccccc1Cl)c1cccc([N+](=O)[O-])c1`, the Potency was inconclusive: 1.26 µM [activator, partial curve, poor fit].
For `CN(C)c1ccnc2sc(C(=O)NCc3ccccc3)c(N)c12`, the Potency was inconclusive: 25.1 µM [activator, single point].
In the case of `Cc1ccc(S(=O)(=O)Nc2cccc(-c3ccc(N4CCCCCC4)nn3)c2)c(C)c1`, the Potency is reported as inconclusive: 15.8 µM [activator, single point].
In the case of `COCCNC(=O)c1ccc(Cl)c(S(=O)(=O)Nc2cccc(C)c2C)c1`, the “activation” value is reported as inactive: -9.89%.
For `Cc1ccc(NC(=O)c2ncn(CC(=O)NCc3ccccc3)n2)cc1C`, the Potency was inconclusive: 20 µM [activator, single point].
In the case of `COC(=O)c1c(-c2ccc(SC)cc2)sc2ccc(OC)cc12`, the Potency is reported as inconclusive: 35.5 µM [activator, single point].
With `COc1cc(C2c3cc4c(cc3C(O)C3COC(=O)C23)OCO4)cc(OC)c1OC` (configuration not stated) the activation was inconclusive: -73.7% [activator].
With `C/C(=N/NC(=O)Cc1ccccc1)c1ccc(C)s1` the Potency was inconclusive: 14.1 µM [activator, partial curve, poor fit].
For `O=C(NCCc1ccccc1)c1c(O)c2ccccc2[nH]c1=O`, the Potency was inconclusive: 14.1 µM [activator, partial curve, poor fit].
For `N/C(=N\OC(=O)c1ccc(Cl)cc1)c1cccnc1`, the Potency was inconclusive: 14.1 µM [activator, partial curve, poor fit].
For `CC(C)(C)c1cc(C(=S)N2CCCC2)cc(C(C)(C)C)c1O`, the “activation” value was inactive: -20%.
With `CCOc1ccc(-c2nc(-c3ccncc3)no2)cc1OCC` the Potency was inconclusive: 11.2 µM [activator, partial curve, poor fit].
